Data taken from a protein production outcome set (Wang et al. 2014).

Experiment: label from the status in PepcDB records

| Sequence | protein production |
| --- | --- |
| MKMKTKIFRVKGKFLMGDKLQPFTKELNAIREEEIYERLYSEFGSKHRVPRSKVKIEEIEEISPEEVQDPVVKALVQRLEHHHHHH | not failed |
| MGCIKSKENKSPAIKYTPENLTEPVSPSASHYGVEHATVAPTSSTKGASVNFNSLSMTPFGGSSGVTPFGGASSSFSVVSSSYPTGLTGGVTIFVALYDYEARTTEDLSFKKGERFQIINNTEGDWWEARSIATGKSGYIPSNYVVPADSIQAEEWYFGKMGRKDAERLLLNPGNQRGIFLVRESETTKGAYSLSIRDWDEVRGDNVKHYKIRKLDNGGYYITTRAQFDTLQKLVKHYTEHADGLCHKLTTVCPTVKPQTQGLAKDAWEIPRESLRLEVKLGQGCFGEVWMGTWNGTTKVAIKTLKPGTMMPEAFLQEAQIMKKLRHDKLVPLYAVVSEEPIYIVTEFMSKGSLLDFLKEGDGKYLKLPQLVDMAAQIADGMAYIERMNYIHRDLRAANILVGENLICKIADFGLVRLIEDNEYTARQGAKFPIKWTAPEAALYGRFTIKSDVWSFGILQTELVTKGRVPYPGMVNREVLEQVERGYRMPCPQGCPESLHELMNLCWKKDPDERPTFEYIQSFLEDYFTATEPQYQPGENL | not failed |
